For 17 compounds, GI50 and TGI results are on record in PubChem BioAssay (NCI).

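Exposure lasted 48 hours, with cells grown in 96-well plates and compounds tested at five concentrations. GI50 marks 50% less growth. TGI: total growth inhibition.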 Some results are limits rather than exact numbers.

The assay has as its system NCI-H322M lung. Description: NCI anticancer screen, dose series, 48 h.
For the compound `Cc1ncc(C(=O)Nc2ccc(CN3CCN(C)CC3)c(C(F)(F)F)c2)cc1C#Cc1cnc(N)c2ncccc12`, the GI50 is 0.3 µM and the TGI was 6.89 µM.
With `NC1CC(=O)c2csc(Cl)c21` (configuration not stated), the TGI was determined as 32.7 µM.
Consider `CCOC(=O)CCC(C(=O)OCC)n1nnc2ccc(Nc3c(C)[n+]([O-])c4cc(Cl)ccc4[n+]3[O-])cc21` (configuration not stated), for which the TGI is above 100 µM.
Turning to `Nc1nc(Cl)cc(NCC2(CO)CCC(O)C2)n1` (configuration not stated), the TGI was above 100 µM.
The same measure, in the same setting: under `COc1ccc(OC)c(C#Cc2ccc(OC)c(C(=O)NCCc3ccc(F)cc3)c2)c1` stands above 100 µM.
As to `O=C(O)C[O][Sb][O]CC(=O)O`, the GI50 was above 100 µM and the TGI was above 100 µM.
In turn, `COc1ccc(CC2c3cc(OC)c(OC)c(OC)c3CC[N+]2(C)C)cc1Oc1ccc(CC2c3cc4c(c(OC)c3CCN2C)OCO4)cc1` (configuration not stated) had a TGI above 100 µM.
Compound `OCCNc1ncnc2c1ncn2C1OC(CO)C(O)C1O` (configuration not stated) gave a TGI above 100 µM.
As for `O=C1OC(C2=CC(=O)c3ccccc3C2=O)C(Cl)=C1Cl` (configuration not stated), the TGI is above 100 µM.
As for `CC(=O)O[C@H]1CC[C@]2(C)[C@H]3CC=C4[C@@H]5CC(C)(C)CC[C@]5(C(=O)NCCNCCN)CC[C@@]4(C)[C@]3(C)CC[C@H]2C1(C)C`, the GI50 was 1.54 µM and the TGI was determined as 2.9 µM.
On to `O=C(OCC1OC(OC(=O)c2cc(O)c(O)c(OC(=O)c3cc(O)c(O)c(O)c3)c2)C(OC(=O)c2cc(O)c(O)c(OC(=O)c3cc(O)c(O)c(O)c3)c2)C(OC(=O)c2cc(O)c(O)c(OC(=O)c3cc(O)c(O)c(O)c3)c2)C1OC(=O)c1cc(O)c(O)c(OC(=O)c2cc(O)c(O)c(O)c2)c1)c1cc(O)c(O)c(OC(=O)c2cc(O)c(O)c(O)c2)c1` (configuration not stated), for which the GI50 is 1.63 µM and the TGI was found to be 15.6 µM.
`CC1(O)CC23CC1CCC2(C)C12CCCC(C)(C(=O)O1)C2CC3O` (configuration not stated): the TGI is above 100 µM.
As for `O=C(NC(=S)NNC(=S)NNc1ccccc1)c1ccccc1`, the GI50 was 14.8 µM and the TGI was above 100 µM.
For `CC(C)C1SCc2nc3ccccc3n21` (configuration not stated), the TGI was above 100 µM.
On to `CCOC(=O)C(=Cc1cc(OC)ccc1OC)C(=O)OCC`, for which the TGI turned out to be 28.4 µM.
With `Cn1c(Sc2ccc(-c3cccnc3)n2C)ccc1-c1cccnc1`, the TGI was above 57.4 µM.
Regarding `CC(C)=CCC[C@](C)(O[C@@H]1O[C@H](CO)[C@@H](O)[C@H](O)[C@H]1O)[C@H]1CC[C@]2(C)[C@@H]1[C@H](O)C[C@@H]1[C@@]3(C)CC[C@H](O)C(C)(C)[C@@H]3[C@@H](O[C@@H]3O[C@H](CO)[C@@H](O)[C@H](O)[C@H]3O)C[C@]12C`, the TGI was above 100 µM.
